Laboratory results: PubChem BioAssay AID624417 (National Center for Advancing Translational Sciences (NCATS), 2012)
The whole screen tested about 410,000 compounds, of which about 6,400 (1.6%) were called active. Inconclusive means that the source gave no clear call. Such entries were picked first, then a sample of the others. Calls follow the shape of the dose curve; as a rule, active = well fitted inhibition curve with a large enough effect; inconclusive = small, poorly fitted or top-dose-only effect; inactive = no such curve, though single readings can be large or run the other way. A potency beside an inconclusive call is a rough fit, not a confirmed value.

These molecules were tested against Glucagon-like peptide 1 receptor (Homo sapiens) (UniProt P43220) (assay: qHTS of GLP-1 Receptor Inverse Agonists (Inhibition Mode)). Settings: HEK293 GLP-1R CRE-luciferase, luminescence, 24 h, GLP-1R form is constitutively active; series mostly up to 38.3 µM.
UniProt P43220, sequence (P43220 whole entry, looked up): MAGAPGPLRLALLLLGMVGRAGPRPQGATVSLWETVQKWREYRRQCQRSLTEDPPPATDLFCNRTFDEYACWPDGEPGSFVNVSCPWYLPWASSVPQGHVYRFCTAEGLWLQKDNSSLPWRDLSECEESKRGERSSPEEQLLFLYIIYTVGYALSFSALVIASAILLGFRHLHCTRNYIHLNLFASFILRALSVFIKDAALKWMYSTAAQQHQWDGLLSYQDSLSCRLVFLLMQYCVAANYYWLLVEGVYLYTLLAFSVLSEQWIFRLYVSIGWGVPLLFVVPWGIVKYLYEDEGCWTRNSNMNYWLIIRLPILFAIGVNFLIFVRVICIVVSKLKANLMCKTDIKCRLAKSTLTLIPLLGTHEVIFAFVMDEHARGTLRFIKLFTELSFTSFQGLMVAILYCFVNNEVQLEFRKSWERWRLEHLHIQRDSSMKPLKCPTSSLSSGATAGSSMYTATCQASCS
Outline: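 HEK293 cells stably co-expressing a cAMP-responsive luciferase reporter and constitutively active GLP-1R were seeded, incubated 12 h, then exposed to compounds for 24 h at 37 C. Luminescence was read 12 min after detection reagent; inverse agonists lower signal.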
Also: nearly all actives have a fitted effect of over 55% in size.
Potency is read from the fitted curve at half-maximal effect; tags tell the direction and shape of the fitted curve.

Potency, inactive:
Cc1ccc(OCC(=O)NC2CCCC(C)C2C)c([N+](=O)[O-])n1 (configuration not stated)
O=C(O)c1ccccc1Sc1ccccc1S(=O)(=O)NC1CCCCC1
CCc1c(C)nc2[nH]nc(-c3ccccc3C)n2c1=O
COc1cc(/C=N/NC(=O)c2ccc(F)cc2)ccc1OC(=O)c1ccco1
COc1ccc(NS(=O)(=O)c2ccc(NC(=O)c3ccccn3)cc2)cc1
COc1ccc(N2Cc3cccc(C(=O)Nc4ccc(Cl)cc4)c3C2=O)cc1
Cc1ccc([C@@H]2CC(=O)[C@@H]3CN(S(=O)(=O)c4ccc(C)cc4)[C@H](c4ccccc4F)C[C@@H]3N2S(=O)(=O)c2ccc(Cl)cc2)cc1
O=C(COc1ccc(F)cc1)Nc1nnc(SCc2cc(=O)n3ccccc3n2)s1
COCC(=O)N1CCCC(C(=O)c2ccc3c4c(cccc24)CC3)C1 (configuration not stated)
Cc1ccc2c(=O)cc(C(=O)Nc3sc4c(c3C(=O)NCC3CCCO3)CCCC4)oc2c1C (configuration not stated)
COc1cc(NC(=O)Cc2ccccc2)cc(OC)c1
NNc1nc(-c2ccccc2)c2ccccc2n1
CCc1c(C)sc2nc(C(C)C)nc(SCC(=O)N3CCc4ccccc4C3)c12
CCN(C(=O)Cn1c(=O)n(Cc2ccccc2)c(=O)c2c1c1cc(OC)ccc1n2C)c1ccccc1

Potency, inconclusive:
CCOc1ccccc1C(=O)NC(C(=O)N(C)Cc1ccc2c(c1)OCO2)C(C)C (configuration not stated) 10 µM [inhibitor, partial curve]
C/C(CC(=O)Nc1ccc(N(C)C)cc1)=N\NC(=O)Cc1csc(N)n1 12.6 µM [inhibitor, partial curve, poor fit]
CSc1nnc(Cn2c(=O)sc3ccccc32)n1CCc1ccccc1 28.2 µM [inhibitor, single point]
CCOC(=O)C1=C(N)c2ccccc2CC1C(C)C (configuration not stated) 10 µM [inhibitor, partial curve, poor fit]
O=C(N/N=C/c1ccccc1Cl)c1n[nH]c2c1CCCC2 2.24 µM [inhibitor, full curve, poor fit]
Fc1ccc(N=C2NN=C(c3cc(F)ccc3F)CS2)cc1 12.6 µM [inhibitor, single point]
Cc1cc(C)c(C)c(S(=O)(=O)N2CCN(C(=O)c3ccccc3OCc3c(C)noc3C)CC2)c1C 28.2 µM [inhibitor, partial curve, poor fit]
Cc1ccc(S(=O)(=O)N2[C@@H](c3ccc(Br)cc3)C(C(=O)O)=CC[C@H]2c2ccc(Cl)c(Cl)c2)cc1 10 µM [inhibitor, partial curve, poor fit]
CCCCCCCCC/C(=N\O)c1ccccn1 12.6 µM [inhibitor, single point]
Cc1ccc(CNc2nc3ccccc3s2)s1 6.31 µM [inhibitor, partial curve, poor fit]
Cn1cnc([N+](=O)[O-])c1S(=O)(=O)Oc1ccc(Cl)cc1 11.2 µM [inhibitor, single point]
Cc1cc(Cl)ccc1NC(=O)CN1C(=O)COc2ccc(S(=O)(=O)Nc3ccccc3)cc21 28.2 µM [inhibitor, single point]
COc1cccc(C(C)(O)c2nc(-c3cccc(C#N)c3)cs2)c1 (configuration not stated) 11.2 µM [inhibitor, partial curve, poor fit]
CN1c2ccccc2C(C)(C)C12C=Cc1cc(O)ccc1O2 (configuration not stated) 22.4 µM [inhibitor, single point]
O=C(NCCc1ccccc1)C1Cc2c(-c3ccc4c(c3)OCO4)ccnc2O1 (configuration not stated) 1.58 µM [inhibitor, full curve]
CCCCNC(=O)Cc1c(OC)ccc2cc(Br)ccc12 28.2 µM [inhibitor, single point]
COc1cccc(OCc2nnc(SCc3cc(=O)[nH]c4ccccc34)o2)c1 5.01 µM [inhibitor, full curve, poor fit]
COc1ccc(C)cc1NC(=O)C(Cc1ccccc1)NS(=O)(=O)c1ccc(Br)s1 (configuration not stated) 10 µM [inhibitor, partial curve, poor fit]
Cc1cc(NCc2ccccc2)nc2ccccc12 22.4 µM [inhibitor, single point]
CN(CC(=O)Nc1cccc(F)c1)C(=O)c1ccc(C2SCCS2)cc1 7.94 µM [inhibitor, partial curve, poor fit]
COc1ccc(CCC(C(O)C(F)(F)F)S(=O)c2ccccc2)cc1 (configuration not stated) 28.2 µM [inhibitor, single point]
Cc1ccc(-c2csc3ncnc(-n4nnc5ccccc54)c23)cc1C 7.94 µM [inhibitor, single point]
COc1ccccc1[C@H]1C(c2cccc(Cl)c2)=NN(c2ccccc2)[C@@H]1CO 10 µM [inhibitor, partial curve, poor fit]
O=C(Nc1ccccc1)c1cc(C2CCCCN2S(=O)(=O)Cc2cccc(C(F)(F)F)c2)on1 (configuration not stated) 3.55 µM [inhibitor, full curve, poor fit]
c1ccc2c(NCCc3c[nH]c4ccccc34)c3ccccc3nc2c1 12.6 µM [inhibitor, single point]
CCOC(=O)C1=C(CC)Nc2ccccc2N/C1=N\S(=O)(=O)c1ccc2ccccc2c1 3.98 µM [inhibitor, partial curve]
CCOC(=O)C1=CCN(S(=O)(=O)c2ccccc2F)C1c1ccc(Cl)cc1 (configuration not stated) 28.2 µM [inhibitor, single point]
O=C(c1cccc(Cl)c1)N1c2ncnn2C2(CCCCC2)[C@@H]2CCCC[C@@H]21 22.4 µM [inhibitor, single point]
COc1ccccc1OCCCCN1CCN(c2ccccc2OC)CC1 3.55 µM [inhibitor, partial curve, poor fit]
O=C(NCc1ccc2c(c1)OCO2)C1CCCN1C(=O)Nc1ccc(Cl)cc1 (configuration not stated) 28.2 µM [inhibitor, single point]
O=C(CN1CCN(S(=O)(=O)c2ccccc2)CC1)Nc1ccc(Cl)c([N+](=O)[O-])c1 7.08 µM [inhibitor, partial curve]
O=C(CCCOc1cccc(Br)c1)NCCOc1ccccc1 28.2 µM [inhibitor, single point]
COc1ccc([C@@H]2[C@@H](C)N(c3ccccc3)c3ccccc3C(=O)N2Cc2ccccc2)cc1 7.94 µM [inhibitor, partial curve, poor fit]
CCOc1ccc2oc(C(=O)NCC(C)(C)CN(C)C)c(C)c2c1 28.2 µM [inhibitor, single point]
CCOC(=O)CN(C(=O)COc1nc(-c2ccccc2)cc(C)c1C#N)c1ccc(C)cc1 8.91 µM [inhibitor, partial curve, poor fit]
CC(OC(=O)COc1ccccc1Cc1ccccc1)C(=O)N(C)c1ccccc1 (configuration not stated) 10 µM [inhibitor, partial curve, poor fit]
CC(C(=O)Nc1ccccc1-c1ccccc1)N(C)Cc1nc2ccccc2c(=O)[nH]1 (configuration not stated) 7.08 µM [inhibitor, partial curve, poor fit]
Cc1ccc(Cn2cccc(NC(=O)CCC3CCCC3)c2=O)cc1 17.8 µM [inhibitor, partial curve, poor fit]
CCOc1ccc(C(Nc2cccnc2)c2cc(Cl)c3cccnc3c2O)cc1 (configuration not stated) 28.2 µM [inhibitor, single point]
COC(=O)c1ccccc1COc1cccn2c(N(C)Cc3cccs3)c(C)nc12 12.6 µM [inhibitor, single point]
CCOC(=O)c1c(NC(=O)CSc2nc3ccc(C)cc3[nH]2)sc2c1CC(C)(C)NC2(C)C 8.91 µM [inhibitor, partial curve, poor fit]
COc1ccc(CN2CCCC(CO)(Cc3ccc(F)cc3F)C2)cc1 (configuration not stated) 20 µM [inhibitor, partial curve, poor fit]
COc1cc(Cl)c(C)cc1NC(c1ccccc1)c1nnc(-c2ccccc2Cl)o1 (configuration not stated) 10 µM [inhibitor, partial curve, poor fit]
CC[C@@H](C)C(NC(=O)OC(C)(C)C)c1cn([C@@H](Cc2cc3ccccc3[nH]2)C(=O)N2CCN(C(=O)OC(C)(C)C)CC2)nn1 (some centres not stated) 17.8 µM [inhibitor, single point]
Cc1ccc(OCCNC(=O)c2cc(C3CC3)nc3c2cnn3C(C)C)cc1 28.2 µM [inhibitor, single point]
Cc1ccc(S(=O)(=O)Nc2ccccc2CNc2ccc(Br)cn2)cc1 28.2 µM [inhibitor, single point]
COc1ccc(-c2onc(C)c2-c2ccc3c(c2)OCCO3)c(O)c1 11.2 µM [inhibitor, partial curve]
Cc1ccc(-c2cc(C(=O)N3CCN(c4ccc(O)cc4)CC3)c3ccccc3n2)cc1 22.4 µM [inhibitor, partial curve, poor fit]
